Test results: PubChem BioAssay AID624418 (National Center for Advancing Translational Sciences (NCATS), 2012)
Screen size: about 410,000 compounds; about 530 (0.13%) were called active. This list was built around the results that the source calls inconclusive (neither active nor inactive); the mix of calls is not that of the screen. Calls follow the shape of the dose curve; as a rule, active = well fitted inhibition curve with a large enough effect; inconclusive = small, poorly fitted or top-dose-only effect, or another doubt; inactive = no such curve, though single readings can be large or run the other way. Potencies of inconclusive entries are doubtful fits and often do not repeat.

Experiment: qHTS of GLP-1 Receptor Inverse Agonists: Cytotox Screen
Conditions: HEK293 cAMP-luciferase reporter cells, luminescence, 24 h; activity change, negative = inhibition: at 38.3 µM (top of the series) unless noted
Summary of the method: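 To flag toxic compounds, the library was rerun on cells for 24 hr at 37 deg C and 5% CO2. Viability-linked luminescence was captured 12 min after adding luciferase detection reagent.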
% is scaled to controls: 0 for no effect and ±100 for the full control effect; potency is read from the fitted curve at half-maximal effect.

SMILES | Potency | activity change, negative = inhibition
COc1ccc(Nc2nc(N3CCCCC3)c3ccccc3n2)cc1 | inconclusive: 11.2 µM [inhibitor, partial curve, poor fit] | 
COc1ccc(CCNS(=O)(=O)c2c(C)nc3scc(C)n3c2=O)cc1OC | inconclusive: 28.2 µM [inhibitor, single point] | 
COc1ccc(-n2nc(C(=O)NCC(=O)N3CCN(c4ccccc4F)CC3)c3ccccc3c2=O)cc1OC | inactive | 
O=[N+]([O-])c1ccc(Oc2cccc(Br)c2)c2ccncc12 | inconclusive: 28.2 µM [inhibitor, single point] | 
COCCNc1cc(C)nc2cc(-c3ccc(C)cc3)nn12 | inconclusive: 28.2 µM [inhibitor, single point] | 
Cc1cccc(C(=O)Nc2nnc(-c3ccco3)o2)c1 | inconclusive: 22.4 µM [inhibitor, single point] | 
COc1ccc(-c2cc(=O)oc3c(C)c(OCC(=O)Nc4cccnc4)ccc23)cc1 |  | inconclusive: -31.2% [inhibitor]
CCCCCCCCN1C(=O)[C@H](CC(=O)NCc2cccs2)C[C@@]2(C(=O)OC)CCCCC=C12 | inactive | 
Cc1ccc2c(=O)c(C(=O)NCc3cccs3)c[nH]c2c1 | inactive | 
O=C(CNS(=O)(=O)Cc1ccccc1)NNc1ccccc1 | inconclusive: 28.2 µM [inhibitor, single point] | 
CN(C)CCc1cc2c(c3c1ccc1ccccc13)OCO2 | inconclusive: 28.2 µM [inhibitor, single point] | 
CCOc1ccc(CCNC(=O)COC(=O)c2nn(C)c(=O)c3ccccc23)cc1OCC | inactive | 
O=C1C2C3C=CC(C3)C2C(=O)N1/N=C/c1cc(Br)cc([N+](=O)[O-])c1O (stereo not drawn) | inconclusive: 11.2 µM [inhibitor, partial curve, poor fit] | 
Cn1nnc(NC(=S)NC(=O)Cc2ccccc2)n1 | inconclusive: 11.2 µM [inhibitor, single point] | 
CCc1ccc(OCc2cccc(C(=O)N/N=C\c3cnn(C)c3C)c2)cc1 | inconclusive: 14.1 µM [inhibitor, single point] | 
Cc1ccccc1C(=O)Nc1c(C(=O)N(CCN(C)C)Cc2ccco2)oc2ccccc12 | inconclusive: 28.2 µM [inhibitor, single point] | 
Cc1ccc(S(=O)(=O)N(C)C)cc1NC(=O)c1c(-c2c(F)cccc2Cl)noc1C | inconclusive: 28.2 µM [inhibitor, single point] | 
O=C(N/N=C/c1ccc(OCc2ccccc2)cc1)c1cc[n+](Cc2ccccc2)cc1 | inactive | 
O=S(=O)(Nc1cc(Sc2ncn[nH]2)c(O)c2ccccc12)c1ccccc1 | inconclusive: 3.16 µM [inhibitor, full curve, poor fit] | 
CCOC(=O)N1CCN(C(=O)c2ccc(CS(=O)c3cccc(C)c3)o2)CC1 (stereo not drawn) | inactive | 
CCC(=O)N(CCC(c1ccco1)c1ccccc1OC)Cc1cccs1 (stereo not drawn) | inactive | 
COc1cc(NC(=S)Nc2ccccn2)cc(OC)c1 | inconclusive: 31.6 µM [inhibitor, single point] | 

SMILES | Potency | activity change, negative = inhibition
O=C(/C(N=Nc1cccc(C(F)(F)F)c1)=C(/O)c1cccs1)C(F)(F)F | inconclusive: 28.2 µM [inhibitor, single point] | 
CSc1ccccc1OCc1cc(C(=O)NCc2cccc(C)n2)no1 | inactive | 
COc1ccccc1NC(=S)Nc1ccccn1 | inconclusive: 28.2 µM [inhibitor, single point] | 
COC(=O)c1ccc(/C=C2/SC(=S)N(CCC(=O)NCCCN3CCOCC3)C2=O)cc1 | inconclusive: 10 µM [inhibitor, single point] | 
CCCCN(C)C(=O)c1nc2ccccn2c1CN1CCC[C@H]1C(=O)OC | inconclusive: 15.8 µM [inhibitor, single point] | 
CCCNc1nc(Nc2ccc(C)cc2)nc(N2CCCC2)n1 | inconclusive: 10 µM [inhibitor, single point] | 
COc1ccc(C(=O)NCc2ccc(-c3nc4ccccc4s3)cc2)cc1 | inconclusive: 14.1 µM [inhibitor, single point] | 
CCOc1ccc(OCC)c(NC(=O)CCc2nc3cccnc3n2Cc2cccs2)c1 | inactive | 
COc1cc2c(cc1OC)C(C)N(C(=O)c1cccs1)CC2 (stereo not drawn) |  | inactive: 11.7% [at 0.307 µM]
O=C1/C(=C\c2ccco2)SC(=S)N1c1ccccc1 | inconclusive: 10 µM [inhibitor, partial curve, poor fit] | 
CCOc1cc(CNc2ccc(N3CCCC3)cc2)cc(Cl)c1OC | inconclusive: 22.4 µM [inhibitor, single point] | 
Cc1ccc(NC(=O)COc2ccccc2CNC(C)(C)CC(C)(C)C)cc1 | inconclusive: 28.2 µM [inhibitor, single point] | 
CCN1CCCC1CNC(=O)c1ccc2c(c1)NC(=O)/C(=C\c1ccccc1Cl)S2 (stereo not drawn) | inconclusive: 11.2 µM [inhibitor, single point] | 
CS(=O)(=O)c1ccc(C(=O)OCC(=O)NC23CC4CC(CC(C4)C2)C3)cc1[N+](=O)[O-] | inconclusive: 15.8 µM [inhibitor, single point] | 
COc1cc(C2c3cc4c(cc3CC3COC(=O)N32)OCO4)cc(OC)c1OC (stereo not drawn) | inconclusive: 0.891 µM [inhibitor, full curve] | 
CC(C)(CO)NCc1c(OCc2ccc(Cl)cc2)ccc2ccccc12 | inconclusive: 20 µM [inhibitor, single point] | 
COc1ccc([C@H]2C[C@H](n3cc(C4CC4)nn3)[C@@H](O)CN2CC2CCCCC2)cc1 | inconclusive: 28.2 µM [inhibitor, single point] | 
Fc1ccc(Nc2nc(SCc3ccccc3F)nc3ccccc23)cc1 | inactive | 
COc1cc(NC(=O)CCCc2nnc3n(CC(C)C)c(=O)c4sccc4n23)cc(OC)c1 | inactive | 
CCC(=O)Nc1nc2ccccc2n1Cc1ccccc1Cl | inconclusive: 12.6 µM [inhibitor, partial curve, poor fit] | 
C[C@@H]1CN([C@@H](C)CO)C(=O)CCCn2nncc2CO[C@@H]1CN(C)S(=O)(=O)c1ccc2c(c1)OCCCO2 | inconclusive: 12.6 µM [inhibitor, partial curve, poor fit] | 
